The other results are listed elsewhere or left out.

The assay concerns the target T1, OsWOX13 (Oryza sativa, UniProt Q5QMM3 1-267).
T1 sequence: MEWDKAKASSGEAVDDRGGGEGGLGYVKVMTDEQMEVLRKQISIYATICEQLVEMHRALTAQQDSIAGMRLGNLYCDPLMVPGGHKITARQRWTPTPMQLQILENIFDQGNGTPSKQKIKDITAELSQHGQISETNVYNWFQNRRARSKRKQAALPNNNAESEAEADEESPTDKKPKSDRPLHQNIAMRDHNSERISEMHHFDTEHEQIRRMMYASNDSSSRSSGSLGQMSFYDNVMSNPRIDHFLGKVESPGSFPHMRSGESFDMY
Description: protein-binding microarray (RPBM); PBS, 2% BSA, 51.3 ng/ul salmon testes DNA, 50 uM zinc acetate, 200 nM TF, 25 C, 1 h; high values mean tight binding. The settings on record: protein: recombinant; tags: N-terminal polyhistidine and DsRed monomer fusion (pET32a); label: CyDye5-dUTP incorporated in the synthesized complementary strand; 3' TTTTT single-stranded linker to array surface; dsDNA, one strand shown. The procedure, abridged:
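Binding signal is reported as fluorescence intensity per feature (arbitrary units) from an Axon 4000B scanner. Incubation used 200 nM of each Ni–NTA-purified, N-terminally polyhistidine- and DsRed-fused transcription factor from E. coli BL21-CodonPlus on a double-stranded custom Agilent array for 1 h at 25 °C, with 50 µM zinc acetate in the buffer, followed by washing.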
Turning to “GTTTGATTAAACTATATAAAATTTGAATTTTAAAATACAACGGAGTCACCTAGTGCAG”, the binding signal is 9960 fluorescence intensity (a.u.).
Regarding “GGTTCAGATTGATTTCTACTACCAGTAAGGTGAGGCTCTACGGAGTCACCTAGTGCAG”, the binding signal is 33900 fluorescence intensity (a.u.).
The result for “TAACAAAATTATTATAAAACTACAACATTTTATAATTTGGCGGAGTCACCTAGTGCAG” reads 3190 fluorescence intensity (a.u.).
Turning to “TCTCCAGAATTAGATTAAATTTCATAAAACTCCACCTGATCGGAGTCACCTAGTGCAG”, the binding signal was 8480 fluorescence intensity (a.u.).
To “ATTTACGTAAATTATATTATTTTGTTATGAGTTATTTTATCGGAGTCACCTAGTGCAG” belongs 5900 fluorescence intensity (a.u.); to “CTCAAATTATTGTTAAACCTTCATATAAATCGACCCCAATCGGAGTCACCTAGTGCAG”, 7650 fluorescence intensity (a.u.).
In the case of “ACTAAATCTCTCTAGTTATCCAATCACCACAAAGTAAAGACGGAGTCACCTAGTGCAG”, the binding signal was 5060 fluorescence intensity (a.u.).
For “TTTTAATCAAACTTATTTAAGTTTGGTCAAACTTATAGATCGGAGTCACCTAGTGCAG”, the binding signal is 3910 fluorescence intensity (a.u.).
Take “TCTTCTCTATCAGTGATTTGGAATATCTACAGATAGAAAACGGAGTCACCTAGTGCAG”: the binding signal was 3260 fluorescence intensity (a.u.).
On to “ATCAGCTAAAATTTAAATTTTCAACCTTAAATATTTGATTCGGAGTCACCTAGTGCAG”, for which the binding signal is 5360 fluorescence intensity (a.u.).
As to “GAAGGAGATTAGATTAGATTAGCGACGAATTCGTCAAACCCGGAGTCACCTAGTGCAG”, the binding signal was 12400 fluorescence intensity (a.u.).
To “ATTCAATTTCCCATTTTCTTGCTGGTCACATCACAAACACCGGAGTCACCTAGTGCAG” belongs 4560 fluorescence intensity (a.u.); to “AAATTAAATGCCTTTATAATTACTGCCCTCCGATTCAAACCGGAGTCACCTAGTGCAG”, 8500 fluorescence intensity (a.u.); to “CATATCCCATTTGCCAATCACACCCTGAGAGTATGTATATCGGAGTCACCTAGTGCAG”, 6560 fluorescence intensity (a.u.).
The result for “AATAATTCTAGATTACTAGCACTGCTTTGTTCTATTTGATCGGAGTCACCTAGTGCAG” reads 5920 fluorescence intensity (a.u.); that for “CGTGCTTGATTTATGTAACTAAGGATAATAGGAGAAGAGGCGGAGTCACCTAGTGCAG”, 19500 fluorescence intensity (a.u.).
As for “AATTGTAATTTGTAGTATATTCAGACAAACTAACCATTGGCGGAGTCACCTAGTGCAG”, the binding signal is 14800 fluorescence intensity (a.u.).
With “TTGTAATTTGGGCTCTCTAAAGTCTAAGCCATTTAAAAGGCGGAGTCACCTAGTGCAG”, the binding signal was 3510 fluorescence intensity (a.u.).
Regarding “GTTTTAGCTAATATTTAATTAATCATGTGCTAATGAGCTACGGAGTCACCTAGTGCAG”, the binding signal was 8590 fluorescence intensity (a.u.).
Take “TATAATTAGTATATGCTTACATGTTGAGCCTTGTGTGTTTCGGAGTCACCTAGTGCAG”: the binding signal was 26600 fluorescence intensity (a.u.).
Consider “TTTTCTCAATTATTTCAGGGTCACATAGTACCTCTCCATTCGGAGTCACCTAGTGCAG”, for which the binding signal was 3160 fluorescence intensity (a.u.).
In the case of “TCTGTTGATGAATGGATTGATTGATGGATGGATGGATGGTCGGAGTCACCTAGTGCAG”, the binding signal is 64100 fluorescence intensity (a.u.).
On to “ACCCTCCTCTCTCTCTCTCTCTCTCTCTATCCATCTCTTTCGGAGTCACCTAGTGCAG”, for which the binding signal was 3170 fluorescence intensity (a.u.).
In the case of “CACTTGGGGAATTCCTGATTAGAACTCCATCATTATGACTCGGAGTCACCTAGTGCAG”, the binding signal was 5560 fluorescence intensity (a.u.).
On to “TAATATCTAATTAATTATATACTAATGACTCGTTTAGTTTCGGAGTCACCTAGTGCAG”, for which the binding signal is 31300 fluorescence intensity (a.u.).
As for “GAATACTGACAGTAAAGATGATTGCAGAATTAGCTCATAGCGGAGTCACCTAGTGCAG”, the binding signal was 19400 fluorescence intensity (a.u.).
As to “CCTAATTAATCCATGATTAGTCATAAGTGTTACAATAATCCGGAGTCACCTAGTGCAG”, the binding signal was 55500 fluorescence intensity (a.u.).
With “TGTACATAATTGTTGGGCTTGCACTTCAGTTAGGCCTGTGCGGAGTCACCTAGTGCAG”, the binding signal is 7380 fluorescence intensity (a.u.).
The result for “GTTTGACAGTTAAAATCTAGATTAAAGCATCATGTGCATTCGGAGTCACCTAGTGCAG” reads 11400 fluorescence intensity (a.u.); that for “CGGCCAGATTTGATTTTGTACCTCCCGGTGCTAGTACCTACGGAGTCACCTAGTGCAG”, 3740 fluorescence intensity (a.u.).
On to “TTACAAAATCTTATCAAATTTGATTAAAATTTGAAAGGATCGGAGTCACCTAGTGCAG”, for which the binding signal was 10400 fluorescence intensity (a.u.).
“ATATATGACTGATCATCCATACATTTGGAGAAGTGAAATGCGGAGTCACCTAGTGCAG”: the binding signal is 8510 fluorescence intensity (a.u.).
To “GCATAATTTGCATAGAAATCGCGAGACGAATCTCTAATTACGGAGTCACCTAGTGCAG” belongs 10200 fluorescence intensity (a.u.); to “TATAGATTTAACACTAAATTTATCACAAATATACAAGTTTCGGAGTCACCTAGTGCAG”, 11900 fluorescence intensity (a.u.).
With “CAAGCTGACTGGTAGGTGGGCCCTCACTAGAATCACGTGCCGGAGTCACCTAGTGCAG”, the binding signal is 4490 fluorescence intensity (a.u.).
For the sequence “GAATAATAGGCATGGAAAATTACGTACTATAAACCACGTCCGGAGTCACCTAGTGCAG”, the binding signal was 3220 fluorescence intensity (a.u.).
As for “AAGCTCAATTAGTGCCAAATCCGTGGAGGCAGCCGGAGGGCGGAGTCACCTAGTGCAG”, the binding signal is 4620 fluorescence intensity (a.u.).
For “GTTGATACTGAATAATTGAATTAGCCATTTCCAAACAGATCGGAGTCACCTAGTGCAG”, the binding signal is 23400 fluorescence intensity (a.u.).
As to “ATAATAATTATTTGATAGTTTCAGAGTTAGGGATGGCCTACGGAGTCACCTAGTGCAG”, the binding signal is 47500 fluorescence intensity (a.u.).
Take “TGGTGATTTAGTCCGTATGATTGGCGAATTGGTTGACAAGCGGAGTCACCTAGTGCAG”: the binding signal is 37100 fluorescence intensity (a.u.).
To “ATCGAATTGAGTGGTGACCAGAAACCGCAGCGGCTGCGTCCGGAGTCACCTAGTGCAG” belongs 4980 fluorescence intensity (a.u.); to “ACGTTGCAAAATAACTCTGATTGAGCATACAAGTGCAGACCGGAGTCACCTAGTGCAG”, 9430 fluorescence intensity (a.u.).

For the origin of these results see article PMC7819943, “Rice protein-binding microarrays: a tool to detect cis-acting elements near promoter regions in rice”.
